Test results: the BET-seq Pho4 binding data (Le et al. 2018)
This is one part of the list. Values were computed here from the reads of four pooled replicates and scatter widely.

The sequences below were run against T1, Pho4 (S. cerevisiae) (UniProt P07270) (assay: relative binding free energy (BET-seq); higher = weaker binding). Conditions: reference: library average.
T1 sequence: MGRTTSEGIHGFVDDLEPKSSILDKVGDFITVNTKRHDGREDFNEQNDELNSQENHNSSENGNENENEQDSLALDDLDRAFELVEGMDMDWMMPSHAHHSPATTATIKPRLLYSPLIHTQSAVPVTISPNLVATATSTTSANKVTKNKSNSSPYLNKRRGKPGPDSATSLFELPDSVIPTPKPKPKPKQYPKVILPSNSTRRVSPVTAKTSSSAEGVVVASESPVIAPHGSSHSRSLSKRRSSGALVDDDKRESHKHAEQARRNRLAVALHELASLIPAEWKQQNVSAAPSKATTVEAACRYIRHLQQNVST

Relative binding free energy, 0.795 kJ/mol:
TAGTGCACGTGAAAGT
AGGTTCACGTGGGACG
TGCTTCACGTGTCGTT
TTGTACACGTGAGTGG

Relative binding free energy, -0.167 kJ/mol:
GTGCGCACGTGTGAGG
GTCGACACGTGGGGGT
ATGTACACGTGGCGTT
GATGCCACGTGGTGTG
CGGTGCACGTGTTCAG
TGGAACACGTGCAGGT

Relative binding free energy, -0.586 kJ/mol:
TCGCGCACGTGGTGGG
ATTGCCACGTGCTGTT

Relative binding free energy, -0.46 kJ/mol:
GCGTGCACGTGGGAGT
TTAAGCACGTGCGGGC
CGGTGCACGTGGTGGC
GACGGCACGTGGGCGG
TAGACCACGTGTGGGT

Relative binding free energy, 0.711 kJ/mol:
TCAGACACGTGGTGCT
CTATTCACGTGGGGGC

Relative binding free energy, -0.209 kJ/mol:
TGAAGCACGTGGAGGC
CTGTGCACGTGGATAT
TATGCCACGTGTGGTT

Relative binding free energy, 0.962 kJ/mol:
GTACGCACGTGAAGGT
TTAATCACGTGAAGTG
TTTGACACGTGAGGGC

Relative binding free energy, -1.34 kJ/mol:
CTGGGCACGTGGTCGG

Relative binding free energy, -0.335 kJ/mol:
TCAAGCACGTGGTTGG
GTGAACACGTGGTAGT
TGTAACACGTGGGGAT
TAGGGCACGTGCAATT
AATACCACGTGTGGGG

Relative binding free energy, 1.38 kJ/mol:
CGTTACACGTGAGTGC

Relative binding free energy, 1.84 kJ/mol:
GGGTACACGTGAGGCC

Relative binding free energy, -0.669 kJ/mol:
TTATGCACGTGGCGTA
CTATGCACGTGCGTGG

Relative binding free energy, -0.962 kJ/mol:
GTTACCACGTGGTAGG

Relative binding free energy, 0.335 kJ/mol:
GGGTACACGTGGTACA
GATAACACGTGTGGTT
GGTTGCACGTGTTTAT
TGATGCACGTGTGAAT
GGGCGCACGTGATGTG

Relative binding free energy, 0.251 kJ/mol:
AGGGGCACGTGTAAGA
ACGTGCACGTGTGTTA
TTTGACACGTGTATGG
TAGGTCACGTGTGGCG

Relative binding free energy, 1.55 kJ/mol:
TTTGTCACGTGAAAAT

Relative binding free energy, 0.753 kJ/mol:
GATTGCACGTGTGTTC
TGGTTCACGTGCGGTC
CGTCTCACGTGTGTGT

Relative binding free energy, 1.72 kJ/mol:
GGGTCCACGTGAGTGT
TAGATCACGTGAGGGG

Relative binding free energy, -0.628 kJ/mol:
TATAGCACGTGTCGTG
ATGCGCACGTGGTTTA
CGGGGCACGTGTGCTT

Relative binding free energy, 1.59 kJ/mol:
TACATCACGTGAGGGT
TTGTTCACGTGAGTCA

Relative binding free energy, -1.21 kJ/mol:
GGGCGCACGTGGGAGT

Relative binding free energy, -0.92 kJ/mol:
TTGGCCACGTGGTGTG

Relative binding free energy, -0.711 kJ/mol:
AGGGGCACGTGCGTTA
TGGGGCACGTGTATGG
TGAGCCACGTGGTGGA

Relative binding free energy, 0.209 kJ/mol:
ATTGTCACGTGGGAGT
ATTCGCACGTGATTTT
TGTAACACGTGGACGG
GCAGACACGTGTGTGT
TATGTCACGTGCGTAT
TGTATCACGTGATTAG

Relative binding free energy, -0.251 kJ/mol:
TCTAGCACGTGTCTGT
TGCGACACGTGTCTGG
GTTGGCACGTGGTGTT
TGGGGCACGTGGAGGA
AGGGACACGTGTTAAG

Relative binding free energy, 0.293 kJ/mol:
CATAACACGTGTGGGT
TGTATCACGTGGGATA
TTCGACACGTGTTGAG

Relative binding free energy, -0.0837 kJ/mol:
TGATGCACGTGGCTAG

Relative binding free energy, -0.293 kJ/mol:
GGAAGCACGTGGTGAG
CTAGGCACGTGTGGCA
ATTGTCACGTGGGTGT
GGATGCACGTGGTCTA
GGCTGCACGTGTTGTT
CATGTCACGTGGTGGC

Relative binding free energy, 0.46 kJ/mol:
GTCGGCACGTGAGTCG
GATTGCACGTGTTGGG
TGTTGCACGTGTCTAA

Relative binding free energy, 0.92 kJ/mol:
TTACTCACGTGAGGTG
CGGATCACGTGTGCTT
TGTTCCACGTGAATTT
CGGTGCACGTGAAAGG
TGTATCACGTGTTCTA

Relative binding free energy, 1.17 kJ/mol:
GTACTCACGTGGTTCG
GTGCTCACGTGAGGAG
ATTCTCACGTGGAAGG
GCGTTCACGTGTCGTG

Relative binding free energy, 1 kJ/mol:
CATTACACGTGTATTA
GTATGCACGTGATAGG
GTGTTCACGTGTATTT
GAGGGCACGTGAGGGG
GGGCGCACGTGATTGC

Relative binding free energy, 0.418 kJ/mol:
TCTGGCACGTGAGGAG
GTCTGCACGTGTGATG
AGCTTCACGTGTTGAT
TGGATCACGTGCTTTT

Relative binding free energy, 2.22 kJ/mol:
GTTTTCACGTGTGATC

Relative binding free energy, 0.628 kJ/mol:
TAGGACACGTGGTAAA
TAACACACGTGTGTTA
GGAATCACGTGGTCGG
ACTATCACGTGGTTGG
AGAAACACGTGTTATT
ATTATCACGTGACTTG

Relative binding free energy, -0.879 kJ/mol:
GCGCGCACGTGGGGGC

Relative binding free energy, 0.586 kJ/mol:
TTCTCCACGTGTTATT
TGTCTCACGTGGATAT
CTGCGCACGTGAAGGT
TTTCTCACGTGGTTTG

Relative binding free energy, -0.502 kJ/mol:
GGGCCCACGTGGTAGG
TAGTGCACGTGCGCGT
GTGACCACGTGGCGTG
GGGGGCACGTGCTTTT
TGTTGCACGTGGTCCT
TCCGGCACGTGGGTTG

Relative binding free energy, 1.51 kJ/mol:
TACTTCACGTGTTGGG
TGTCACACGTGAGGCG

Relative binding free energy, -1.13 kJ/mol:
ATGGGCACGTGCATAT
AGGGGCACGTGGGTGT
AACGGCACGTGGGCGG

Relative binding free energy, 1.21 kJ/mol:
CGTTTCACGTGTGAGG

Relative binding free energy, 1.13 kJ/mol:
GACGTCACGTGTGGGA
AGTCTCACGTGAAGGG
TTTTCCACGTGTAATT
GAATTCACGTGTCGTT
GGGGTCACGTGATAGC

Relative binding free energy, 0.837 kJ/mol:
TTTGTCACGTGAAGGC
TGATTCACGTGGGTTT
TGTCTCACGTGGGAGG

Relative binding free energy, 1.3 kJ/mol:
CGGTTCACGTGTGATT
GAATGCACGTGAGTAG

Relative binding free energy, 0.669 kJ/mol:
ATATTCACGTGGGTAT
TTACTCACGTGTAGTT
GTGTTCACGTGGTCTA
AAATTCACGTGTTATG

Relative binding free energy, 1.26 kJ/mol:
CTGTTCACGTGGTTGC
GGTTTCACGTGTCATG

Relative binding free energy, -1.09 kJ/mol:
TATGGCACGTGCGTCT

Relative binding free energy, -0.377 kJ/mol:
CTGTGCACGTGCTGGA
TGTAACACGTGCTGTG

Relative binding free energy, 1.8 kJ/mol:
GGGTTCACGTGTGATA

Relative binding free energy, 0.126 kJ/mol:
GTTGCCACGTGATAGT
GGAGACACGTGGTGCA
TTGCGCACGTGTGGTT

Relative binding free energy, 1.67 kJ/mol:
GCTTTCACGTGCGGTT
GTTATCACGTGAATGT

Relative binding free energy, -1.55 kJ/mol:
CCGGGCACGTGGGGAG

Relative binding free energy, -0.753 kJ/mol:
AGCTGCACGTGTTGTT
GAAAGCACGTGGCGGG

Relative binding free energy, 0 kJ/mol:
ATCTACACGTGGGTGG
TGTTACACGTGGCATG
TATTGCACGTGTTAGA
TGTTACACGTGGGGAT

Relative binding free energy, 1.42 kJ/mol:
GGATTCACGTGGGGAA
GAGAGCACGTGAAGGC
TCCTTCACGTGTTTGG
GGGTTCACGTGGGTGG
GTGCTCACGTGGAATG
CAGTTCACGTGAAAGG

Relative binding free energy, 1.09 kJ/mol:
CATTGCACGTGAGATG
GTGGACACGTGTAATG

Relative binding free energy, 1.05 kJ/mol:
GTCTGCACGTGTGGTC
TGGTACACGTGATTTT

Relative binding free energy, -0.418 kJ/mol:
GAGGGCACGTGGTTGA
TTATCCACGTGCGGGT
GTGAGCACGTGTGGAT
GTTGCCACGTGGGAAG
TGGTCCACGTGTGCTG
TTAAGCACGTGTTATA
CGCGTCACGTGGGGTA
GCAGACACGTGGGTTG

Relative binding free energy, -0.126 kJ/mol:
AGAAGCACGTGGTTTT
GAAAACACGTGGGTGG
TGCGGCACGTGATATG
GTTGGCACGTGGTCTA

Relative binding free energy, 1.76 kJ/mol:
TGAGTCACGTGAATAG

Relative binding free energy, 0.167 kJ/mol:
TATGTCACGTGTTATG
TTAGGCACGTGCAAGT
ATGGTCACGTGGGTGT
GTCAGCACGTGGTTAT
TGGCGCACGTGGAATG

Relative binding free energy, 0.544 kJ/mol:
TTGATCACGTGTCTGA
ATTATCACGTGTTAGA

Relative binding free energy, -0.544 kJ/mol:
TAAGGCACGTGGAGGC
GGATGCACGTGTAGGC
GGGCCCACGTGGTGAG

Relative binding free energy, -0.0418 kJ/mol:
TAATGCACGTGTTAGG
GTATACACGTGTATTG
GTTGTCACGTGCCGGG
GTGTACACGTGTGGTG
GAGTGCACGTGTGCTT

Relative binding free energy, 1.46 kJ/mol:
AATTTCACGTGATGTG
GATTACACGTGTGATA

Relative binding free energy, -1 kJ/mol:
GGGGGCACGTGGGCTG

Relative binding free energy, 0.879 kJ/mol:
CTTTTCACGTGACGTG
TAGTTCACGTGGAGGT
TGTTTCACGTGTTGTC
GGTGCCACGTGAGGAA

Relative binding free energy, 0.0837 kJ/mol:
TCCGTCACGTGTTGGT
TGATGCACGTGTTTAT
TGGGTCACGTGCTGAT
TTAATCACGTGTATTG
CGTGGCACGTGGACGG
AGGGGCACGTGACTTG

Relative binding free energy, 0.0418 kJ/mol:
GGGGCCACGTGTGGCT
TGGAACACGTGGTGTC
CTGTCCACGTGGGTCT
GTTAACACGTGCTTGT
TGCGTCACGTGTCGGG
AGGAACACGTGGGACG

Relative binding free energy, -1.05 kJ/mol:
TTAAGCACGTGGCGTG

Relative binding free energy, 0.377 kJ/mol:
ATTGACACGTGGATCG
AGTTACACGTGGTGCT
TCTTACACGTGTCGGT
TCATGCACGTGTGCGT
CTGGCCACGTGTTGCG
TCTTACACGTGGTTTA

Relative binding free energy, 0.502 kJ/mol:
GAAGGCACGTGAGATG
TTAGGCACGTGTAAGT
TATTACACGTGATATT
AGATACACGTGGTAAT
CTAATCACGTGGGTTT
GTCGACACGTGGTGGC
GACTGCACGTGTCGGG
